According to PubChem BioAssay AID588342 (National Center for Advancing Translational Sciences (NCATS), 2011):
The whole screen tested about 360,000 compounds, of which about 25,000 (6.9%) were called active. The shares of active, inactive and inconclusive entries below differ from those in the screen. The call rests on the fitted dose curve; in most records, active means well fitted inhibition curve with a large enough effect; inconclusive means small, poorly fitted or top-dose-only effect; inactive means flat fitted curve, though single readings scatter. A potency beside an inconclusive call is a rough fit, not a confirmed value.

molecular target: Luciferin 4-monooxygenase (Photinus pyralis) (UniProt P08659); assay: qHTS profiling assay for firefly luciferase inhibitor/activator using purifed enzyme and Km concentrations of substrates (counterscreen for miR-21 project); conditions: purified FLuc, luminescence inhibition; series mostly up to 57.5 µM; activity change, negative = inhibition: at the top concentration; further: nearly all actives have a fitted effect of over 55% in size;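 on activity change, negative = inhibition: plate controls were vehicle for no effect and reference inhibitor for full effect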
Sequence of UniProt P08659 (P08659 whole entry, looked up): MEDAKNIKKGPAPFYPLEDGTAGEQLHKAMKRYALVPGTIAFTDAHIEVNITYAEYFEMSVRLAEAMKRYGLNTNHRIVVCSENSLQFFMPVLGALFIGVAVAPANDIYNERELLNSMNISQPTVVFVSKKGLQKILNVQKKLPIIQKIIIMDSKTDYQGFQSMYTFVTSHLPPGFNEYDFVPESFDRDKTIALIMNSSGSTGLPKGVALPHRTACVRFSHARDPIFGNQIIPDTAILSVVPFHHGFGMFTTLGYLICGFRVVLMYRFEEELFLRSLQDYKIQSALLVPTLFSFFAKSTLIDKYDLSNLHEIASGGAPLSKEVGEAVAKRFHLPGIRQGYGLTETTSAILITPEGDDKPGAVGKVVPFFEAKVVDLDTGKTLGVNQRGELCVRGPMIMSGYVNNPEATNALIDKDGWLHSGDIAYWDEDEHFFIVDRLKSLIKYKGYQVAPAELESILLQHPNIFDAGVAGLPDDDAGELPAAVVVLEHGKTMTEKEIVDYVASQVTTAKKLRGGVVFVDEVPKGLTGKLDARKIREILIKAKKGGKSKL
Procedure, shortened: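 Purified P. pyralis luciferase, 10 nM final, with Km-level 10 uM D-luciferin and 10 uM ATP in 50 mM Tris acetate pH 7.5, 10 mM Mg acetate, 0.01% Tween-20, 0.05% BSA; 6-point qHTS titration about 60 µM downward; luminescence read.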
Potency means the concentration at half of the fitted maximal effect; tags describe the fitted curve by direction and shape.

SMILES	Potency	activity change, negative = inhibition
CCc1ccc(CNC(=O)Cn2nc(-c3ccccc3)ccc2=O)cc1	inconclusive: 23.9 µM [inhibitor, single point]	
Cc1ccc(C(=O)NC23CC4CC(CC(C4)C2)C3)c(Cl)c1	inconclusive: 15.1 µM [inhibitor, partial curve]	
CC(=O)c1cccc(NC(=O)c2cnn(-c3ccccc3)c2C)c1	active: 9.53 µM	
COC(=O)C(C)(C)ONC(=O)Nc1ccc(C)cc1	inconclusive: 19 µM [inhibitor, partial curve]	
COc1ccc(-c2csc(CCN3N=C(C)CC3=O)n2)cc1	inconclusive: 37.9 µM [inhibitor, partial curve, poor fit]	
Clc1ccccc1C1SCC2Nc3ccccc3CN21 (configuration not stated)	inconclusive: 19 µM [inhibitor, partial curve, poor fit]	
CC(=O)N1CCN(c2ccc(NC(=O)c3ccco3)cc2Cl)CC1	inconclusive: 30.1 µM [inhibitor, single point]	
Cc1ccc(NC(=O)CN(C)S(=O)(=O)c2cccc3nsnc23)cc1	inconclusive: 37.9 µM [inhibitor, partial curve, poor fit]	
O=C1CS/C(=N/N=C/c2ccccc2)N1Cc1ccco1	inconclusive: 21.3 µM [inhibitor, single point]	
COc1cccc(NC(=O)COC(=O)c2ccccc2SCC(=O)N2CCCC2)c1	inconclusive: 21.3 µM [inhibitor, single point]	
CN1Cc2sc(NC(=S)NC(=O)c3ccccc3)c(C#N)c2CC1(C)C	active: 13.5 µM	
COc1ccc(C(C(=O)NC2CCCC2)N(Cc2cccnc2)C(=O)Cc2cccs2)c(OC)c1 (configuration not stated)		inactive: 0.888%
O=C(CC1CCCC1)Nc1ccc2c(c1)CCC2	active: 13.5 µM	
CC(CNC(=O)Cn1ccc2cc(S(=O)(=O)N3CCCCC3)ccc21)c1ccccc1 (configuration not stated)		inactive: -14.8%
CC1CCCN(C(=O)c2ccc(Cl)c(S(=O)(=O)N3CCCCCC3)c2)C1 (configuration not stated)	inconclusive: 30.1 µM [inhibitor, single point]	
COc1ccccc1-c1cc(C(=O)NCCCN2CCOCC2)no1	inconclusive: 37.9 µM [inhibitor, partial curve, poor fit]	
COC(=O)c1cccc(COC(=O)c2ccc(N(C)C)cc2)c1	inconclusive: 21.3 µM [inhibitor, partial curve, poor fit]	
CCc1cnc2c(c1SCC(=O)Nc1ccc(Cl)cc1)c(=O)n(C)c(=O)n2C		inactive: -5.54%
COc1ccc(OC)c(C(=O)c2coc3ccc(O)c(CN4CCOCC4)c23)c1	inconclusive: 37.9 µM [inhibitor, partial curve, poor fit]	
Cc1c(C(=O)NNC(=O)c2ccncc2)oc2ccccc12	inconclusive: 30.1 µM [inhibitor, single point]	
O=C(CN1CCN(c2ccccc2F)CC1)c1ccc2c(c1)OCO2	inconclusive: 21.3 µM [inhibitor, partial curve, poor fit]	
CCOc1ccc(NC(=O)Cc2coc3ccc(C)cc23)cc1		inactive: -2.47%
O=C(N/N=C/c1nn(-c2ccccc2)cc1-c1ccccc1)c1ccncc1	active: 9.53 µM	
CC(=O)N1CCC2(CC1)C/C(=N\NC(=S)Nc1ccc(C)cc1)c1cc(O)ccc1O2	inconclusive: 37.9 µM [inhibitor, single point]	

SMILES	Potency	activity change, negative = inhibition
COc1ccccc1NC(=O)CSc1ccc(-c2sc(C)nc2C)nn1	inconclusive: 37.9 µM [inhibitor, partial curve, poor fit]	
CCC(Nc1ccc(-c2nc(-c3ccco3)no2)cc1[N+](=O)[O-])c1ccccc1 (configuration not stated)	inconclusive: 16.9 µM [inhibitor, partial curve]	
COc1ccc(C(=O)NC2CCCc3ccccc32)c(OC)c1OC (configuration not stated)		inactive: 2.85%
O=C(c1ccccc1)N1CCN(CC#Cc2ccccc2)CC1	inconclusive: 23.9 µM [inhibitor, partial curve, poor fit]	
O=C(COc1ccc(Cl)cc1Br)NCC(c1ccco1)N1CCCC1 (configuration not stated)	inconclusive: 30.1 µM [inhibitor, partial curve, poor fit]	
N#C/C(=C\c1ccc(Cl)cc1)C(=O)NCC1CCCO1 (configuration not stated)	inconclusive: 26.9 µM [inhibitor, partial curve, poor fit]	
CCOc1ccccc1NC(=O)COC(=O)CN(C)S(=O)(=O)c1ccc(C)cc1	inconclusive: 37.9 µM [inhibitor, partial curve, poor fit]	
COc1ccccc1OCC(=O)Nc1ccccn1	active: 3.38 µM	
O=[N+]([O-])c1ccc(N/N=C/c2cccc(O)c2)cc1	active: 23.9 µM	
CCC(=O)Nc1cccc(NC(=O)c2ccc(C)c([N+](=O)[O-])c2)c1	inconclusive: 26.9 µM [inhibitor, single point]	
O=C(N/N=C/c1cnc2ccccc2n1)c1cccc(F)c1	inconclusive: 9.53 µM [inhibitor, partial curve]	
CCOc1cc(C(=O)Nc2ccc3c(c2)OCO3)ccc1OC(F)F	inconclusive: 26.9 µM [inhibitor, single point]	
CCOc1cccc(-c2c(C(=O)N/N=C/c3cccs3)nnn2-c2nonc2N)c1		inactive: -9.71%
O=C(COC(=O)Cc1ccsc1)Nc1ccc(Br)cc1	inconclusive: 23.9 µM [inhibitor, partial curve, poor fit]	
Fc1cccc(NCc2cn3ccccc3n2)c1	active: 9.53 µM	
CC1=Nc2cc(C(=O)N3CCCC3)ccc2Sc2c(C)ccc(C)c21		inactive: 0.929%
c1ccc2c(Oc3ccc4c(c3)OCO4)nncc2c1	active: 6.01 µM	
COc1cc(Cl)c(C)cc1NC(=O)COc1ccccc1[N+](=O)[O-]		inactive: 2.17%
O=C(c1ccc2c3n(nc2c1)-c1ccc(Cl)cc1CO3)N1CCOCC1	active: 9.53 µM	
Cc1ccc(C2=N/C(=C\c3cccc(F)c3)C(=O)O2)cc1	active: 3.01 µM	
Cc1c(NC(=O)Nc2ccc3c(c2)OCO3)cccc1[N+](=O)[O-]	inconclusive: 4.78 µM [inhibitor, partial curve]	
Cc1noc(C)c1C(=O)Nc1nc(-c2ccc(F)cc2)cs1	inconclusive: 37.9 µM [inhibitor, partial curve, poor fit]	
Cc1ccc(NC(=O)c2ccc3c(=O)n4c(nc3c2)CCC4)cc1S(=O)(=O)N(C)C	inconclusive: 13.5 µM [inhibitor, partial curve]	
O=C(CNC(=O)c1ccco1)N/N=C/c1cccs1	inconclusive: 26.9 µM [inhibitor, single point]	

SMILES	Potency	activity change, negative = inhibition
Cc1nn(-c2ccccc2)c(Cl)c1/C=N/NC(=O)c1ccnn1C	active: 2.69 µM	
c1ccc(-c2ccc(CNC3CC3)cc2)cc1	inconclusive: 21.3 µM [inhibitor, single point]	
O=C(CCn1c(=O)c2cccn2c2ccc(F)cc21)NCc1ccccc1F		inactive: 3.15%
COc1ccccc1CNC(=O)[C@H](C)NC(=O)C1CCN(C(=O)[C@@H]2CCCN2C(=O)OC(C)(C)C)CC1		inactive: -4.62%
CCNC(=O)CC1C(=O)N(c2ccccc2)C(=O)N1Cc1ccc(F)cc1 (configuration not stated)		inactive: -2.33%
CSc1nc(=O)n(-c2ccccc2)c(C)c1C(C)=O	inconclusive: 30.1 µM [inhibitor, single point]	
CCOc1ccc(C(=O)c2cn(CC(=O)Nc3cc(OC)cc(OC)c3)c3ccc(F)cc3c2=O)cc1		inactive: -4.62%
CCOC(=O)CN1C(=O)S/C(=C/c2ccc(N3CCCCC3)o2)C1=O	inconclusive: 21.3 µM [inhibitor, single point]	
O=C(c1cc(=O)[nH]c2ccccc12)N(Cc1nnc(-c2ccccc2Cl)o1)C1CC1		inactive: -18.3%
O=C1C2C3C=CC(CO)(O3)C2C(=O)N1c1ccc(-c2ccccc2)cc1 (configuration not stated)	active: 19 µM	
COc1cc(-c2nc3ccccn3c2N)ccc1O	inconclusive: 21.3 µM [inhibitor, partial curve, poor fit]	
COc1ccc(/C=N/NC(=O)c2nonc2N)cc1OC	inconclusive: 23.9 µM [inhibitor, single point]	
O=C(NCc1ccc(Cl)cc1)c1cc2ccccc2oc1=O	inconclusive: 1.69 µM [inhibitor, partial curve, poor fit]	
COc1ccc(C(=O)Nc2cc(-c3ccccc3)nn2-c2ccccc2)cc1	inconclusive: 9.53 µM [inhibitor, partial curve, poor fit]	
CC1(c2cnc(Nc3ccccc3)s2)CCC(=O)O1 (configuration not stated)	inconclusive: 26.9 µM [inhibitor, single point]	
COc1ccc(CC(=O)Nc2ccc(S(=O)(=O)Nc3onc(C)c3C)cc2)cc1OC		inactive: 6.63%
N#CC1(NC(=O)COC(=O)/C=C/c2ccc3ccccc3n2)CCCCC1		inactive: -16.3%
CCN(CC)C(=O)Cn1c(=O)n(Cc2ccc(C(=O)NCc3ccc(C)cc3)cc2)c(=O)c2ccccc21	inconclusive: 5.36 µM [inhibitor, partial curve, poor fit]	
CCN(CC)S(=O)(=O)c1ccc2c(c1)nc(-c1ccccn1)n2C	inconclusive: 26.9 µM [inhibitor, partial curve]	
O=C(CCC(=O)Nc1ccc(F)cc1)N/N=C/c1cc([N+](=O)[O-])ccc1O		inactive: -11.1%
COc1ccc(Cl)cc1Nc1nc(N)c2ccccc2n1	active: 16.9 µM	
Cc1cccc(NS(=O)(=O)c2cnc(Cl)c(Br)c2)n1		inactive: 5.41%
CCOc1ccc(NC(=O)c2ccc(NC(=O)c3ccccc3Br)cc2)cc1		inactive: -14.8%
Cc1cc(C)cc(NC(=O)c2ccc3c(c2)CCN3S(C)(=O)=O)c1	inconclusive: 30.1 µM [inhibitor, single point]	
